Experimental data from paper PMC9911399, “Two distinct binding modes provide the RNA-binding protein RbFox with extraordinary sequence specificity”.
Changes are numbered by the printed parent chain; changes in the protein carry UniProt numbers. This is one part of the list.

T1: RBFOX1 RRM (Homo sapiens, UniProt Q9NWB1 109-208)
T1 sequence: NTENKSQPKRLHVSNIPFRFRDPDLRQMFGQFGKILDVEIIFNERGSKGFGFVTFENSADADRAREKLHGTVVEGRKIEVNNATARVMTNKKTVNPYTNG

B1: AAUCGAA (DNA:RNA)
RNA: GGGAGACCGGAAUUCAGAUUGUCCAAUCGAAUUAAAUCCCGUCGUAGCCACCA
DNA 1: CAATCTGAATTCCGGTCTCCC
DNA 2: TGGTGGCTACGACGGGATT
B2: CUAAACU (DNA:RNA)
RNA: GGGAGACCGGAAUUCAGAUUGUCCCUAAACUUUAAAUCCCGUCGUAGCCACCA
DNA 1: CAATCTGAATTCCGGTCTCCC
DNA 2: TGGTGGCTACGACGGGATT
B3: CAUCCGC (DNA:RNA)
RNA: B1 RNA with A25C, G29C, A30G, A31C
DNA 1: CAATCTGAATTCCGGTCTCCC
DNA 2: TGGTGGCTACGACGGGATT
B4: UACUCCG (DNA:RNA)
RNA: B1 RNA with A25U, U27C, C28U, G29C, A30C, A31G
DNA 1: CAATCTGAATTCCGGTCTCCC
DNA 2: TGGTGGCTACGACGGGATT
B5: AACGCUA (DNA:RNA)
RNA: B1 RNA with U27C, C28G, G29C, A30U
DNA 1: CAATCTGAATTCCGGTCTCCC
DNA 2: TGGTGGCTACGACGGGATT
B6: GAGAAAA (DNA:RNA)
RNA: B1 RNA with A25G, U27G, C28A, G29A
DNA 1: CAATCTGAATTCCGGTCTCCC
DNA 2: TGGTGGCTACGACGGGATT
B7: CGGAGAG (DNA:RNA)
RNA: B1 RNA with A25C, A26G, U27G, C28A, A31G
DNA 1: CAATCTGAATTCCGGTCTCCC
DNA 2: TGGTGGCTACGACGGGATT
B8: UAUGCAC (DNA:RNA)
RNA: B1 RNA with A25U, C28G, G29C, A31C
DNA 1: CAATCTGAATTCCGGTCTCCC
DNA 2: TGGTGGCTACGACGGGATT
B9: AGACAUC (DNA:RNA)
RNA: B1 RNA with A26G, U27A, G29A, A30U, A31C
DNA 1: CAATCTGAATTCCGGTCTCCC
DNA 2: TGGTGGCTACGACGGGATT
B10: UCGGAAA (DNA:RNA)
RNA: B1 RNA with A25U, A26C, U27G, C28G, G29A
DNA 1: CAATCTGAATTCCGGTCTCCC
DNA 2: TGGTGGCTACGACGGGATT
B11: CGACCCG (DNA:RNA)
RNA: B2 RNA with U26G, A28C, A29C, U31G
DNA 1: CAATCTGAATTCCGGTCTCCC
DNA 2: TGGTGGCTACGACGGGATT
B12: CCGCUGC (DNA:RNA)
RNA: B1 RNA with A25C, A26C, U27G, G29U, A30G, A31C
DNA 1: CAATCTGAATTCCGGTCTCCC
DNA 2: TGGTGGCTACGACGGGATT
B13: CCGGACU (DNA:RNA)
RNA: B2 RNA with U26C, A27G, A28G
DNA 1: CAATCTGAATTCCGGTCTCCC
DNA 2: TGGTGGCTACGACGGGATT
B14: CUAUCAA (DNA:RNA)
RNA: B2 RNA with A28U, A29C, C30A, U31A
DNA 1: CAATCTGAATTCCGGTCTCCC
DNA 2: TGGTGGCTACGACGGGATT
B15: AGACGAU (DNA:RNA)
RNA: B1 RNA with A26G, U27A, A31U
DNA 1: CAATCTGAATTCCGGTCTCCC
DNA 2: TGGTGGCTACGACGGGATT
B16: CGACGUG (DNA:RNA)
RNA: B1 RNA with A25C, A26G, U27A, A30U, A31G
DNA 1: CAATCTGAATTCCGGTCTCCC
DNA 2: TGGTGGCTACGACGGGATT
B17: UCCGAGU (DNA:RNA)
RNA: B2 RNA with C25U, U26C, A27C, A28G, C30G
DNA 1: CAATCTGAATTCCGGTCTCCC
DNA 2: TGGTGGCTACGACGGGATT
B18: AGGAUAA (DNA:RNA)
RNA: B1 RNA with A26G, U27G, C28A, G29U
DNA 1: CAATCTGAATTCCGGTCTCCC
DNA 2: TGGTGGCTACGACGGGATT
B19: AGAACCC (DNA:RNA)
RNA: B2 RNA with C25A, U26G, A29C, U31C
DNA 1: CAATCTGAATTCCGGTCTCCC
DNA 2: TGGTGGCTACGACGGGATT
B20: GCCAAUA (DNA:RNA)
RNA: B2 RNA with C25G, U26C, A27C, C30U, U31A
DNA 1: CAATCTGAATTCCGGTCTCCC
DNA 2: TGGTGGCTACGACGGGATT
B21: UGACGGA (DNA:RNA)
RNA: B1 RNA with A25U, A26G, U27A, A30G
DNA 1: CAATCTGAATTCCGGTCTCCC
DNA 2: TGGTGGCTACGACGGGATT
B22: CUACCAU (DNA:RNA)
RNA: B2 RNA with A28C, A29C, C30A
DNA 1: CAATCTGAATTCCGGTCTCCC
DNA 2: TGGTGGCTACGACGGGATT
B23: AGCAAAU (DNA:RNA)
RNA: B2 RNA with C25A, U26G, A27C, C30A
DNA 1: CAATCTGAATTCCGGTCTCCC
DNA 2: TGGTGGCTACGACGGGATT
B24: UAUGCGA (DNA:RNA)
RNA: B1 RNA with A25U, C28G, G29C, A30G
DNA 1: CAATCTGAATTCCGGTCTCCC
DNA 2: TGGTGGCTACGACGGGATT
B25: CACCCAA (DNA:RNA)
RNA: B1 RNA with A25C, U27C, G29C
DNA 1: CAATCTGAATTCCGGTCTCCC
DNA 2: TGGTGGCTACGACGGGATT
B26: GAAACUG (DNA:RNA)
RNA: B2 RNA with C25G, U26A, A29C, C30U, U31G
DNA 1: CAATCTGAATTCCGGTCTCCC
DNA 2: TGGTGGCTACGACGGGATT
B27: UAAGAAC (DNA:RNA)
RNA: B1 RNA with A25U, U27A, C28G, G29A, A31C
DNA 1: CAATCTGAATTCCGGTCTCCC
DNA 2: TGGTGGCTACGACGGGATT
B28: UUUAAUG (DNA:RNA)
RNA: B2 RNA with C25U, A27U, C30U, U31G
DNA 1: CAATCTGAATTCCGGTCTCCC
DNA 2: TGGTGGCTACGACGGGATT
B29: CUCUGUC (DNA:RNA)
RNA: B2 RNA with A27C, A28U, A29G, C30U, U31C
DNA 1: CAATCTGAATTCCGGTCTCCC
DNA 2: TGGTGGCTACGACGGGATT
B30: UACAGGG (DNA:RNA)
RNA: B1 RNA with A25U, U27C, C28A, A30G, A31G
DNA 1: CAATCTGAATTCCGGTCTCCC
DNA 2: TGGTGGCTACGACGGGATT
B31: GCGUAUG (DNA:RNA)
RNA: B2 RNA with C25G, U26C, A27G, A28U, C30U, U31G
DNA 1: CAATCTGAATTCCGGTCTCCC
DNA 2: TGGTGGCTACGACGGGATT

These binders were tested against T1, RBFOX1 RRM (assay: EMSA; HiTS-Eq, 1 nM pool, 10 min; buffer printed only for the single-RNA assays: 10 mM Tris pH 7.5, 150 mM NaCl, 3.4 mM EDTA, 0.001% NP-40, 30 C). Settings: tags: His6 N-terminal (pET28a); label: 5' 32P.
How it was run: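 Relative association constants, normalised to the cognate motif, were derived by comparing read counts of each RNA species with those of the control reaction. The RNA sequenced was the free fraction, separated by 8% native PAGE after a 10 min equilibration in 50 µL of 1 nM 5′-radiolabelled RNA (7 randomized nucleotides) with increasing concentrations of purified wild-type or mutant RbFox RRM.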

Binder	binding signal
B1	0.00572 KA relative to UGCAUGU
B2	0.0029 KA relative to UGCAUGU
B3	0.00206 KA relative to UGCAUGU
B4	0.00858 KA relative to UGCAUGU
B5	0.00499 KA relative to UGCAUGU
B6	0.00503 KA relative to UGCAUGU
B7	0.0277 KA relative to UGCAUGU
B8	0.0143 KA relative to UGCAUGU
B9	0.00453 KA relative to UGCAUGU
B10	0.00663 KA relative to UGCAUGU
B11	0.00524 KA relative to UGCAUGU
B12	0.0127 KA relative to UGCAUGU
B13	0.0067 KA relative to UGCAUGU
B14	0.00339 KA relative to UGCAUGU
B15	0.00914 KA relative to UGCAUGU
B16	0.0175 KA relative to UGCAUGU

Binder	binding signal
B17	0.00885 KA relative to UGCAUGU
B18	0.0109 KA relative to UGCAUGU
B19	0.00472 KA relative to UGCAUGU
B20	0.00209 KA relative to UGCAUGU
B21	0.00668 KA relative to UGCAUGU
B22	0.00128 KA relative to UGCAUGU
B23	0.00423 KA relative to UGCAUGU
B24	0.0135 KA relative to UGCAUGU
B25	0.00202 KA relative to UGCAUGU
B26	0.0107 KA relative to UGCAUGU
B27	0.0116 KA relative to UGCAUGU
B28	0.0116 KA relative to UGCAUGU
B29	0.00978 KA relative to UGCAUGU
B30	0.00573 KA relative to UGCAUGU
B31	0.0166 KA relative to UGCAUGU
